Reference: the supplement of paper PMC4466236
The full ranking holds about 33,000 sequences; the median of “E-score (dimensionless, -0.5 to 0.5)” is about -0.058, and the highest 2% start at about 0.35. This is one part of the list.

Tested on: MvaT
Assay: PBM 8-mer E-score (mean of HK and ME arrays) (E-score (dimensionless, -0.5 to 0.5)); higher = stronger relative binding preference; most listed sequences are background and not binding sites
In short: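 Full-length P. aeruginosa MvaT, with glutathione S-transferase fused to its N-terminus (cloned into pTH6838 by isothermal assembly), was tested by protein binding microarray using a previously described protocol. Two universal double-stranded 60-mer arrays (ME and HK) were used, each with a constant 25-mer primer region and a variable 35-mer region covering all 8-mers. The rank-based 8-mer E-score (-0.5 to 0.5) is the mean of the two arrays, parsed with a custom Python script.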

Row | Sequence | PBM 8-mer E-score
1 | GTCACCCA | -0.0972
2 | CTTACACA | 0.0906
3 | AACAGGCA | 0.0124
4 | ACACCCGG | -0.144
5 | AGTTGCAT | 0.182
6 | GCCGGAAC | -0.224
7 | ACATTTCA | 0.153
8 | ATAGTTCA | 0.223
9 | AATCCCGA | -0.0419
10 | ATAATGCA | 0.36
11 | AGAGCATA | -0.00836
12 | CGCAGCAC | -0.286
13 | AATATGGG | 0.243
14 | CTTGCTCA | -0.0242
15 | ACATACAT | 0.275
16 | ACAGCAAA | 0.131
17 | CGTGGAAA | 0.0364
18 | ATTCTTGC | 0.0322
19 | GCTCGGAC | -0.366
20 | CGTCTGCC | -0.361
21 | CCATAGTC | -0.144
22 | GAATGGTC | -0.0963

Row | Sequence | PBM 8-mer E-score
23 | ACAATGGT | 0.0718
24 | AAGCGATT | 0.0267
25 | CCCGTCCA | -0.107
26 | AGACCTCG | -0.132
27 | GATAAGTA | 0.297
28 | AACCCCAA | -0.113
29 | ATTCCAGG | -0.121
30 | ACCTGTAC | -0.0723
31 | GATCCGCA | -0.305
32 | CCCGCATC | -0.29
33 | AGGCTGTC | -0.213
34 | TACGGCAA | 0.092
35 | CCAGGGTC | -0.315
36 | CGAACGAC | -0.179
37 | CCTGACAA | -0.1
38 | CCATTCTA | 0.0932
39 | AGTACCTG | -0.0974
40 | CGAAAATC | -0.112
41 | TATCGTCA | -0.0126
42 | ACGCGGCT | -0.237
43 | AGCTACAT | -0.0316
44 | ACTTCGTG | -0.0413

Row | Sequence | PBM 8-mer E-score
45 | CCACTCCA | -0.176
46 | CATTGCCA | 0.0291
47 | CGAGATCA | -0.0866
48 | TCAAGCAA | -0.0464
49 | AGCCGACG | -0.408
50 | CTTCGGGA | -0.129
51 | CCGCGTGA | -0.128
52 | GTCCAATA | 0.0714
53 | GAAGGGCC | -0.311
54 | GAGACGCA | -0.301
55 | CAGGTGTA | -0.0673
56 | GCGCGGAA | -0.0364
57 | GCTGCGTA | -0.0707
58 | CAGTGAAC | 0.0424
59 | GATAAGAC | 0.109
60 | GTAACCAA | -0.121
61 | ACTTTCAA | 0.307
62 | GCCTGCGC | -0.287
63 | ACACCGGA | -0.0117
64 | GACGTAAA | -0.0188
65 | CATGCGGG | -0.325
66 | CAAGCGTC | -0.218

Row | Sequence | PBM 8-mer E-score
67 | AGGCGGGA | -0.132
68 | ATGGCTAC | -0.151
69 | GACTACTA | 0.209
70 | GAGACATC | -0.0544
71 | CTATAAGC | 0.112
72 | CAGGTACG | -0.0664
73 | CGCAATCA | -0.0216
74 | AAGAAAAT | 0.0894
75 | ATTCCGAA | 0.0606
76 | CCCTATCG | -0.19
77 | ATGGGAAC | -0.0891
78 | TCTAGCAA | -0.0133
79 | CGTCCTTC | -0.201
80 | CGTATAGA | -0.0157
81 | AGAAAGGC | -0.118
82 | GCATCTAA | 0.183
83 | CACGGAAC | -0.0491
84 | ACTTAGTC | 0.0288
85 | TATAGTGA | 0.255
86 | TCGTAGCA | -0.139
87 | GTGTTAAC | 0.219
88 | CGCCCACC | -0.194

Row | Sequence | PBM 8-mer E-score
89 | ACTTAAAT | 0.331
90 | ACTGTAAG | 0.0449
91 | AGCTTGTA | -0.0236
92 | GCCCTACA | -0.172
93 | ACTTAGAC | 0.185
94 | ATAAAGAT | 0.333
95 | GGAGAGAC | -0.175
96 | GGATGTCA | -0.0552
97 | CTCTGCTA | -0.0795
98 | CCGTGAGA | -0.232
99 | ACGCAGTA | -0.174
100 | ATCTTGCG | -0.0884
101 | CACGTTTC | -0.0924
102 | ATCACTGG | -0.032
103 | ATGCTCAA | 0.00499
104 | CAGTCGCG | -0.0997
105 | GGACACAA | -0.0265
106 | CATCATAG | -0.0306
107 | CCTACCAC | -0.0618
108 | ATAGCGGG | -0.115
109 | GGCACTAA | -0.0251
110 | CCGGGTCG | -0.26
